Results taken from PubChem BioAssay (NCI).
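A five-concentration, 48-hour dose response in 96-well plates underlies each endpoint, interpolated linearly between surrounding concentrations. Here, GI50 denotes the concentration required for 50% inhibition of growth. Definition used: TGI = concentration required for complete inhibition of growth.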

Tested on: NCI-H322M lung
Assay: NCI tumour cell line growth inhibition, 48 h

Structure (SMILES) | TGI [µM] | GI50 [µM]
CC1=C(O)C(=O)C2C(=O)C1C(C)C2c1ccc(Cl)cc1 (stereo not given) | > 100 | –
CNC(=S)N/N=C/c1cccc(C)n1 | > 100 | –
COc1ccc2c3c(c(=O)n(C)c2c1OC)C=CC(C)(C)O3 | > 100 | –
Brc1ccccc1-c1ncc(-c2ccccc2)o1 | > 100 | –
Cc1ccc(N=C2C(=O)C3=C(OC(C)(C)CC3)c3ccccc32)cc1 | 2.96 | –
O=S1C2=C(Cc3ccccc3)C(Cc3ccccc3)=C1CCc1cccc(c1)CC2 | 31.5 | –
N#CC(C(=O)C(=O)NCCCNC(=O)C(=O)C(C#N)c1ccccc1)c1ccccc1 (stereo not given) | > 100 | –
Cc1nc2c(sc3nc4ccccc4n32)c(=O)[nH]1 | > 100 | –
S=C1N=C(Cl)C2(NN1)c1ccccc1-c1ccccc12 | > 10 | –
COC(=O)/C=c1/c2ccccc2n2nc3ccccc3c12 | > 100 | –
COC(=O)C1C2C=CC(C2)N1[C@@H](C)c1ccccc1 (stereo not given in full) | > 100 | –
N#C/C(=C\c1cccc(O)c1)C(N)=O | > 100 | –
CCC(CC)n1c(C)nc2c1C(=O)c1ccccc1C2=O | > 100 | –
Cc1cccc(C(O)c2ccncc2)c1O (stereo not given) | > 100 | –
COc1cc2c(cc1OC)CC(N=[N+]=[N-])c1cc(OC)c(OC)cc1/C=C\2 (stereo not given) | > 100 | –
CC(CNC(Cc1ccccc1)c1ccccc1)NC(Cc1ccccc1)c1ccccc1 (stereo not given) | 11.3 | 2.88
C(=C\C(SCc1ccccc1)SCc1ccccc1)/c1ccccc1 | > 10 | –
c1cnc2[nH]cc(-c3csc(-c4cn(CCCCN5CCOCC5)c5ccccc45)n3)c2c1 | 3.83 | 1.79
CCCCN(Cc1ccc(F)cc1)c1ccc(CO)c(Cl)c1 | 27.2 | 13.6
NCc1ccc(C(=O)O)cc1 | > 100 | –
Cc1ccc(C(O)c2cnc(C)n2Cc2ccccc2)cc1 (stereo not given) | > 100 | –
CCOP(=O)(OCC)C(NC(c1ccccc1)c1ccccc1)c1cccc2ccccc12 (stereo not given) | 26.2 | 11.5
O=[N+]([O-])c1ccc2nc(/C=C(\O)c3ccc(F)cc3)c(/C=C(\O)c3ccc(F)cc3)nc2c1 | > 100 | –
CC(=O)OCC1OC(n2ccc(=O)[nH]c2=O)C(OC(C)=O)C1OC(C)=O (stereo not given) | > 100 | > 100
C[C@H](O)C1CC(Cn2nnc3c(N)ncnc32)C1(C)C (stereo not given in full) | > 100 | –
CC1(C)N=C(N)N=C(N)N1c1cccc(OCCOc2ccc([N+](=O)[O-])cc2)c1 | > 100 | –

Structure (SMILES) | TGI [µM] | GI50 [µM]
O=c1cc(-c2ccccc2)c2cc3c(=O)ccoc3cc2o1 | > 100 | –
CC(=O)OCC1=C(C)C(OC(=O)C(OC(C)=O)[C@@H](NC(=O)c2ccccc2)c2ccccc2)CCC1(C)C (stereo not given in full) | > 100 | –
NC(C(=O)[O-])C(=O)[O-].NC1CCCCC1N.[Pt+4] | > 100 | 5.57
CC(C)C1OC(=O)/C=C/C=C/C=C/C=C/C=C/CC(O)CC(O)CC(O)CC(O)CC(O)CC(O)CC(O)CC(O)/C=C/C1C (stereo not given) | > 100 | –
Fc1ccc2[nH]c3c(NCCCN4CCOCC4)ncnc3c2c1 | > 100 | 77.9
O=C(O)c1cc(=O)c2[nH]c3ccccc3c2s1 | > 100 | –
COc1ccc2c(c1)c1c(n2CCN2CCCCC2)-c2ccccc2CC1 | 45.3 | –
COC(=O)c1csc(-c2nc(CCNC(=O)OC(C)(C)C)sc2Br)n1 | > 100 | –
CC(=O)OC1c2ccccc2CCCCCCC12OCCO2 (stereo not given) | > 100 | –
CC(=O)n1c2ccccc2c2nc3nc(Oc4ccc(C)cc4)c4ccccc4c3cc21 | > 100 | –
CSc1ccc(/C=C2\N=C(c3ccccc3)N(c3nc4ccc(Sc5ccccc5)cc4[nH]3)C2=O)cc1 | > 96.4 | –
Cn1ccnc1C(=O)/C=C/c1ccc(CC(=O)Nc2ccccc2)cc1 | 6.33 | 2.57
COc1ccc(NC(=O)c2cc(OC)c(OC)c(OC)c2)cc1 | 89.3 | –
CCCCCCCCCCCCCCCCCCCCCC(=O)Nc1ccn(C2OC(CO)C(O)C2O)c(=O)n1 (stereo not given) | > 100 | –
S=c1[nH]c2ccc(Br)cc2c(=S)n1-c1ccccc1 | 53 | –
COc1cc[nH]c1/C=C1\C(=O)Nc2ccc(F)c(I)c21 | > 25 | > 25
Fc1cccc(COc2ccc(Nc3ncnc4cc(-c5ccc[nH]5)sc34)cc2Cl)c1 | > 25 | 0.809
COc1ccc(C2S/C(=C\c3ccc(O)cc3)C(=O)N2NC(=O)Cc2ccccc2)cc1 (stereo not given) | > 100 | –
C=C(C)C(=O)O[C@H]1[C@H]2[C@H](OC(=O)[C@H]2C)[C@H](O)[C@@H](C)[C@@H]2C=CC(=O)[C@]21C | 8.94 | –
O=[N+]([O-])c1cccnc1NCC1(CO)CC(Cc2ccccc2)C1 (stereo not given) | > 100 | –
c1cc2c(c(-c3c4ccccc4nc4ccccc34)c1)CC1(CC2)OCCO1 | > 100 | –
S=c1[nH]c(=S)c2cc(Sc3ccc4[nH]c(=S)[nH]c(=S)c4c3)ccc2[nH]1 | > 100 | –
Cc1ccc(Nc2cc(=O)[nH]c(=S)[nH]2)cc1 | > 100 | –
CNC1=CC(=O)C2=C(C1=O)[C@H]1CC[C@]3(C)C(=O)CC[C@H]3[C@@H]1CC2 | 28.7 | –
N[C@H](C(=O)O)[C@H](Cl)CC(=O)O | > 100 | –
COc1ccc2c(c1)OC(N(C(C)=O)C(C)=O)=C(C#N)C2c1ccc(F)cc1 (stereo not given) | > 100 | 6.26

Structure (SMILES) | TGI [µM] | GI50 [µM]
CC(C)C[P+](c1ccccc1)(c1ccccc1)c1ccccc1 | 89.9 | –
O=C(CCl)N1c2ccccc2Sc2c1ccc1ccccc21 | 34.7 | 18.3
COc1ccc(-c2cc(-c3cc(OC)c(OC)c(OC)c3)cc(-c3cc4ccccc4oc3=O)n2)cc1 | 41.7 | –
O=C1/C(=C/c2ccc(O)cc2)COc2ccc(-c3ccccc3)cc21 | 21.7 | 6.65
COc1cc(Nc2nc(N[C@H]3CCCC[C@@H]3N)nc3cc[nH]c(=O)c23)cc(OC)c1 | 13.7 | 0.771
O=NNc1nc(-c2cccnc2)nc2ccccc12 | > 100 | –
COc1ccc(-c2cncn2-c2ccc(OC)cc2)cc1 | 66.3 | 20.5
CC(C)CCn1c(=O)c2c(=O)[nH][nH]c2c2ccccc21 | > 100 | –
Cc1ccc(NC(=O)/C(=N\Nc2ccc([N+](=O)[O-])cc2[N+](=O)[O-])C2C(=O)NC(=O)NC2=O)cc1 | > 100 | –
O=C(CSC(=S)N1CCOCC1)Nc1nc2c(s1)CCCC2 | > 100 | –
COc1ccc(NC(=O)/C(CC2=Nc3ccc([N+](=O)[O-])cc3NC2O)=N\NC(=O)C[N+](C)(C)C)c(OC)c1 (stereo not given) | > 100 | –
c1ccc(CSc2nc(N3CCOCC3)c3cn[nH]c3n2)cc1 | > 100 | –
COc1ccc2nc3cc(Cl)ccc3c(NCCCN(CCCl)CCCl)c2c1 | 1.99 | –
COc1cc2c(c(OC)c1OC)-c1ccc(SC)cc1[C@H](OC(=O)c1ccccc1)CC2 | > 100 | –
C=C1C(=O)O[C@H]2[C@H]1CC/C(COC(=O)N1CCC[C@H]1C(=O)Nc1ccc(OC)c(C(N)=O)c1O)=C\CC[C@@]1(C)O[C@@H]21 | 26.8 | 12.7
C#C[C@]1(O)CC[C@H]2[C@@H]3CCc4cc(OC(=O)c5cccc6cc7ccccc7nc56)ccc4[C@H]3CC[C@@]21C | > 100 | –
CC[C@H]1OC([C@H](O)C/C=C\C#C[Si](C)(C)C)C/C=C\C[C@H]1O[Si](C)(C)C(C)(C)C (stereo not given in full) | > 100 | –
CCN(CC)C(=S)SS(=O)(=O)c1ccc([N+](=O)[O-])cc1 | > 100 | –
Nc1nc(Cl)cc(Nc2cc(Cl)cc(Cl)c2)n1 | 35.9 | –
CC(=O)O[C@@H]1CC2C(C)(C)CCCC2(C)C2=C1C(=O)C(C(C)C)=CC2=O (stereo not given in full) | 2.21 | 0.529
CN(C)c1ccc(/C=C/C=C(/C#N)c2ccccc2)cc1 | > 100 | –
CC(C)C1CC(O)O[C@@H]([C@@H](C)[C@H]2CC(=O)[C@@H]3[C@@H]4[C@@H](O)[C@H](O)[C@H]5[C@@H](O)[C@H](O)CC[C@]5(C)[C@H]4CC[C@]23C)C1 (stereo not given in full) | > 100 | –
COc1ccc(CC(C)N)cc1 (stereo not given) | > 100 | –
O=C1C(Cl)=C(Nc2cccc(O)c2)C(=O)N1c1cc(Cl)c(Cl)cc1Cl | 38.8 | 17.1
Cc1cc2c(c(C=NCc3ccccc3)c1)OC1(C=C2)Oc2ccccc2C(=O)N1C (stereo not given) | 44.4 | –
CC1(C)CC(=O)c2c(nc3ccc4ccccc4c3c2-c2ccc(NC(=O)CCC(=O)Nc3ccc(-c4c5c(nc6ccc7ccccc7c46)CC(C)(C)CC5=O)cc3)cc2)C1 | > 100 | –

Structure (SMILES) | TGI [µM] | GI50 [µM]
COc1ccc2oc3cccc(NCCN(C)C)c3c(=O)c2c1 | 23.6 | –
Cc1ccc(S(N)(=O)=O)cc1 | > 1000 | –
CC[C@H](CC#N)OC(=O)N[C@@H](C)c1cccc(NC(=O)Nc2ccc(-c3cnco3)c(OC)c2)c1 | 46.6 | 0.098
CC(=O)[O-].CC(=O)[O-].[NH2-].[Pt+2].c1ccc2cnccc2c1 | > 100 | > 100
COc1ccc(CC2NC(=O)/C=C/CC(C(C)C3OC3c3ccccc3)OC(=O)C(CC(C)C)OC(=O)C(C)CNC2=O)cc1Cl (stereo not given) | > 0.1 | –
C[C@@H]1CN(CC(=O)N2CC(C)(C)c3nc(CO)c(Cc4ccc(F)cc4)cc32)[C@@H](CN2CCOC[C@H]2C)CN1 | > 100 | 35.6
COC(=O)CCC12CCC(O1)c1ccccc12 (stereo not given) | > 100 | –
Nc1nc2c(c(=O)[nH]1)CN(c1ccc(S(N)(=O)=O)cc1)CN2 | > 100 | –
c1ccc(-c2nn(-c3ccccc3)[n+](-c3ccccc3)n2)cc1 | > 74.7 | –
CN(C)c1ccc2cc(-c3ccccc3F)c(N)nc2c1 | 19.5 | 5.1
CCCCn1cnc2c(SC)ncnc21 | > 100 | –
OC1COC(n2c3ccc(Br)cc3c3ccc4c5ccccc5[nH]c4c32)C(O)C1O (stereo not given) | 16 | –
O=C(CC(C(=O)c1ccoc1)c1ccco1)c1ccco1 (stereo not given) | > 100 | –
Cn1c2ccccc2c(=NNc2ccc(C(=O)O)cc2)c2ccccc21 | 43.3 | –
CN(CCc1ccc(N)cc1)[C@H]1CCCC[C@H]1N1CCCC1 | > 100 | –
CC(C)NC(=O)OCCS(=O)c1c(Cl)c(Cl)nn1C (stereo not given) | > 100 | –
COCc1cc2c(cc1/C=C/[N+](=O)[O-])OCO2 | 29.3 | –
Cc1cccc2c1NC(=S)[C@@H]1CCCN1C2=O | > 100 | –
COCCOCCOC1=C(Cl)C(=O)c2c(O)ccc(O)c2C1=O | 26.7 | –
O[C@@H]1C[C@@H]2N[C@@](O)(C[C@@H]2O)[C@H]1O | > 100 | –
OCCCCCCOc1ccc(-c2cc(-c3ccccn3)nc(-c3ccccn3)c2)cc1 | 1.24 | –
COC(=O)/N=[N+](\[O-])C(c1ccc(OC)cc1)C1CCCCC1 (stereo not given) | 11.2 | –
CC(=O)c1cc([N+](=O)[O-])ccc1OCC(=O)O | > 100 | –
CSC1=C(c2ccc(Cl)cc2)SC(N2CCCCC2)N1c1ccc([N+](=O)[O-])cc1 (stereo not given) | > 100 | –
COc1ccc2c3c1OC1c4[nH]c5ccccc5c4CC4(O)C(C2)N(C)CCC314 (stereo not given) | 78.2 | –
